Results: PubChem BioAssay AID1347165 (National Center for Advancing Translational Sciences (NCATS), 2019)
The campaign covered roughly 220,000 compounds. About 5,700 (2.6%) were called active. The inconclusive results got no clear call from the source; some entries with a clear call stand among them for comparison. Calls come from the whole dose curve; as a rule, active = well fitted inhibition curve with a large enough effect; inconclusive = small, poorly fitted or top-dose-only effect; inactive = no such curve, though single readings can be large or run the other way. Potencies of inconclusive entries are doubtful fits and often do not repeat.

biological target: Lysine-specific demethylase 5B (Homo sapiens) (UniProt Q9UGL1); assay: Primary screen for KDM5B Histone Demethylases FDH-coupled qHTS; details: FDH-coupled NADH fluorescence (FDH is formaldehyde dehydrogenase); activity change, negative = inhibition: at 57.7 µM (top of the series); note: nearly all actives have a fitted effect of over 70% in size; for activity change, negative = inhibition: 0% is about no effect
Outline: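 KDM5BΔAP (200 nM final) in 50 mM HEPES pH 7.5, 0.01% Tween-20 was preincubated 10 min at RT with compound over a concentration range. Substrate mix (H3K4me3 12.5 µM, α-KG 25 µM, Fe²⁺, ascorbate, NAD⁺, FDH) was added, and NADH fluorescence change over 30 min gave dose-response curves.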
Potency is the fitted concentration of half-maximal effect; tags give direction and shape of the fitted curve.

Sequence of UniProt Q9UGL1 (Q9UGL1 whole entry, looked up): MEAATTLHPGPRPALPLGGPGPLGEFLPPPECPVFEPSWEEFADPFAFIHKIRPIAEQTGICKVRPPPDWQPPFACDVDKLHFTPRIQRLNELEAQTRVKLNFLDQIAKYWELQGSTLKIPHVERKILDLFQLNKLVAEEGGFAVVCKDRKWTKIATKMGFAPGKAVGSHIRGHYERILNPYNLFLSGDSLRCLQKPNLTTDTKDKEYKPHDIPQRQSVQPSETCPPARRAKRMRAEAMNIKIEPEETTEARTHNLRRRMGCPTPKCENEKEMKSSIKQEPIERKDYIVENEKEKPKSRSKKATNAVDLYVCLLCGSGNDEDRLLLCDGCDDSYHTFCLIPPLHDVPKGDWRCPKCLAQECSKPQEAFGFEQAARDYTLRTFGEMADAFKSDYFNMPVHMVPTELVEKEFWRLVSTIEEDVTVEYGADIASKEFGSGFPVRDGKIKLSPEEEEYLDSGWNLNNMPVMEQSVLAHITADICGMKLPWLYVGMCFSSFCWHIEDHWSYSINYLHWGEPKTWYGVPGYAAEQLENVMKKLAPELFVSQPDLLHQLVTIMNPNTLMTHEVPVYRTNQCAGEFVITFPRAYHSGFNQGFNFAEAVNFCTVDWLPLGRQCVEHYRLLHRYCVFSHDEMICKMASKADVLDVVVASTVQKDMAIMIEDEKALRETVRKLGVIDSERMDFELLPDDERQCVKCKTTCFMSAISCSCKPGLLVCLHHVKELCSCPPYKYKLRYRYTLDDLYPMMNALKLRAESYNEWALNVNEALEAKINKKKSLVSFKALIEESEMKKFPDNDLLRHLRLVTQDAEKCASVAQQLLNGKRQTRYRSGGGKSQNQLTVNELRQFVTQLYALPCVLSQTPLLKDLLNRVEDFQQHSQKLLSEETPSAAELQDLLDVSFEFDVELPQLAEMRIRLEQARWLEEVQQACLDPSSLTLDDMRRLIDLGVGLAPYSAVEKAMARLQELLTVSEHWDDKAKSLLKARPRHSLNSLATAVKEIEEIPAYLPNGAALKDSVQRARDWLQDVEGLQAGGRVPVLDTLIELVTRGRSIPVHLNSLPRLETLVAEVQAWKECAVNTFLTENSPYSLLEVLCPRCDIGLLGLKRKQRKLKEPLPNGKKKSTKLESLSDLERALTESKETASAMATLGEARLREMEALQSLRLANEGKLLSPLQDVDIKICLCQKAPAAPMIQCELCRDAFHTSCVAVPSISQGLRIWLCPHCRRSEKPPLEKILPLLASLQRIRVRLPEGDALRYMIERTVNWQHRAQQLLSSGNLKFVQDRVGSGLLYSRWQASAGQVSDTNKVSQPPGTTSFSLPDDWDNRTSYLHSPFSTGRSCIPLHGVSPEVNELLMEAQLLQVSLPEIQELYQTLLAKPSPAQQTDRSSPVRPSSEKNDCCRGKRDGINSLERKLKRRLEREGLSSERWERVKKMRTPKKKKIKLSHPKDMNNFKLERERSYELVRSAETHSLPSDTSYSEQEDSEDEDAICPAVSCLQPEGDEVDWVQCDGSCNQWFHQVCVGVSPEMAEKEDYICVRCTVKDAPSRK

| SMILES | Potency | activity change, negative = inhibition |
| --- | --- | --- |
| CCCNC(=O)C(C)N1CC=C(c2c[nH]c3ccccc23)CC1 (stereo not drawn) | inconclusive: 20 µM [inhibitor, single point] | – |
| Oc1ccc(C2=CCN(CC(O)COc3ccc(F)cc3)CC2)cc1 (stereo not drawn) | inconclusive: 22.4 µM [inhibitor, partial curve, poor fit] | – |
| Cc1ccc2c(n1)N(C)[C@H](CO)CCN(CCC(C)C)C2 | active: 31.6 µM | – |
| COc1cc2c(cc1OCc1ccccc1)NC(=O)C21CCN(c2cnccn2)CC1 | active: 31.6 µM | – |
| COc1cc2c(cc1OCc1ccccc1)NC(=O)C21CCN(Cc2ccncc2)CC1 | – | inactive: -22.7% [at 86.2 µM] |
| N#Cc1ccc(Cn2cc(C(=O)C3CC3)c3ccccc32)cc1 | inconclusive: 39.8 µM [inhibitor, single point] | – |
| Cc1nc(-c2ccccc2)cc([C@H]2CN3CC[C@H]2C[C@@H]3CNC(=O)C2CCC2)n1 | inconclusive: 28.2 µM [inhibitor, single point] | – |
| CC(CNc1ccc([N+](=O)[O-])c2cnccc12)c1ccccc1 (stereo not drawn) | inconclusive: 28.2 µM [inhibitor, single point] | – |
| COc1ccc([N+](=O)[O-])c(N2CC3CCC(C2)N3CC(F)(F)F)n1 | – | inactive: -17.5% [at 115 µM] |
| Cc1cc(C=C2C(=O)N(C)C(=S)N(C)C2=O)c(C)n1-c1ccncc1 | inconclusive: 39.8 µM [inhibitor, single point] | – |
| O=C(C1CCCCC1)N1C[C@@H]2C[C@H](C1)c1ccc(-c3cccc(C(F)(F)F)c3)c(=O)n1C2 | active: 31.6 µM | – |
| CCC1(N2CCN(C(=O)COc3ccc(Cl)cc3C)CC2)CCN(C(=O)NC)C1 (stereo not drawn) | inconclusive: 11.2 µM [inhibitor, partial curve, poor fit] | – |
| O=C1CO[C@H]2CN(Cc3cccnc3)C[C@H]2N1c1ccccc1 | – | inactive: -26% [at 86.2 µM] |
| COc1ccc(CN2C(=O)NC(=O)/C(=C/c3ccoc3)C2=O)cc1 | inconclusive: 39.8 µM [inhibitor, single point] | – |
| CCn1cc(CN2CCN(C(=O)Cc3ccsc3)CC2)ccc1=O | inconclusive: 17.8 µM [inhibitor, partial curve] | – |
| O=C1NCCCCCCN(Cc2ccccn2)[C@H]2CCC[C@@H]12 | inconclusive: 1.78 µM [inhibitor, partial curve, poor fit] | – |
| O=c1c(-c2cccc(C(F)(F)F)c2)ccc2n1C[C@H]1C[C@@H]2CN(S(=O)(=O)c2cccs2)C1 | inconclusive: 25.1 µM [inhibitor, single point] | – |
| COc1cc2c(cc1OCc1ccncc1)NC(=O)C21CCN(CC2CC2)CC1 | – | inactive: 21.5% [at 86.2 µM] |
| CCC1(N2CCN(C(=O)COc3cccc(Cl)c3)CC2)CCN(S(C)(=O)=O)C1 (stereo not drawn) | inconclusive: 31.6 µM [inhibitor, partial curve, poor fit] | – |
| O=C1CC(c2ccc(Br)cc2)c2c(c3ccccc3oc2=O)O1 (stereo not drawn) | inconclusive: 31.6 µM [inhibitor, partial curve, poor fit] | – |
| O=C1Nc2ccccc2CC12CCCN2Cc1ccncc1 (stereo not drawn) | inconclusive: 89.1 µM [inhibitor, partial curve] | – |
| COc1ccc2[nH]c(C)c(CCNCc3ccc(F)cc3F)c2c1 | inconclusive: 22.4 µM [inhibitor, partial curve, poor fit] | – |
| Cc1cc(C)c(-n2c(O)c(/C=N/NC(=O)c3ccncc3)c(=O)[nH]c2=O)c(C)c1 | inconclusive: 15.8 µM [inhibitor, partial curve, poor fit] | – |

| SMILES | Potency | activity change, negative = inhibition |
| --- | --- | --- |
| COc1ccccc1N1CCN(C[C@H]2CN3CC[C@H]2C[C@@H]3CNC(=O)Nc2cccc(C#N)c2)CC1 | – | inactive: 1.19% |
| O=C(Nc1ccon1)c1cccn(Cc2cccc(Cl)c2)c1=O | inconclusive: 25.1 µM [inhibitor, partial curve, poor fit] | – |
| COc1ccc(C(=O)N2[C@H]3CC[C@@H]2c2cnc(C)nc2C3)cc1OC | – | inactive: -20% |
| N#CC(C#N)=Cc1cccn1-c1ccc(Br)cc1 | – | inactive: 25% |
| COc1ccc2c(c1)C1(CCN(C(=O)C(C)(C)C)C1)C(=O)N2C (stereo not drawn) | – | inactive: -1.85% |
| C1CC(N(CC2CC2)C2CNC2)CCO1 | inconclusive: 25.1 µM [inhibitor, partial curve] | – |
| Cc1nc(-c2ccccc2)cc([C@H]2CN3CC[C@H]2C[C@@H]3CNC(=O)c2cccs2)n1 | – | inactive: -28.3% [at 86.2 µM] |
| C=C[C@H]1CN2CC[C@H]1C[C@@H]2CNC(=O)COc1ccccc1 | – | inactive: -29.9% [at 86.2 µM] |
| O=C(c1ccc(F)cc1)N1C[C@@H]2C[C@H](C1)c1c(-c3cc4ccccc4s3)ccc(=O)n1C2 | – | inactive: -5.07% |
| CCC(=NCc1cccnc1)c1c(O)n(-c2ccc(C)cc2)c(=O)[nH]c1=O | – | inactive: 23.3% |
| COc1ccc2c(c1)C1(CCN(S(=O)(=O)c3ccc4c(c3)CC(=O)N4C)C1)C(=O)N2C (stereo not drawn) | inconclusive: 12.6 µM [inhibitor, partial curve, poor fit] | – |
| Cc1ccc(C(=O)N2CCC3(CC2)c2nccn2-c2ccccc2CN3C)s1 | inconclusive: 4.47 µM [inhibitor, single point] | – |
| Cc1nc(-c2cccs2)cc([C@H]2CN3CC[C@H]2C[C@@H]3CNS(C)(=O)=O)n1 | inconclusive: 31.6 µM [inhibitor, single point] | – |
| O=C1Nc2ccccc2CN(Cc2ccncc2)C12CCNCC2 | inconclusive: 56.2 µM [inhibitor, partial curve, poor fit] | – |
| CCOc1ccc(/C=C(\C)[N+](=O)[O-])cc1 | inconclusive: 22.4 µM [inhibitor, partial curve, poor fit] | – |
| COc1ccc(CNCCc2ccc(F)cc2)cc1 | inconclusive: 25.1 µM [inhibitor, partial curve, poor fit] | – |
| CCCCCn1c(=O)c(C(=O)Nc2nc3ccccc3[nH]2)c(O)c2ccccc21 | inconclusive: 35.5 µM [inhibitor, partial curve, poor fit] | – |
| O=C(NCc1ccc(F)cc1)[C@H]1CN2CCC1C[C@@H]2Cn1cc(-c2ccccn2)nn1 (stereo partly drawn) | – | inactive: -11.6% [at 86.2 µM] |
| C=C[C@H]1CN2CC[C@H]1C[C@@H]2CNC(=O)c1cc(OC)c(OC)c(OC)c1 | inconclusive: 35.5 µM [inhibitor, single point] | – |
| O=C1CC(c2c(F)cccc2Cl)c2c(c3ccccc3oc2=O)O1 (stereo not drawn) | inconclusive: 31.6 µM [inhibitor, partial curve, poor fit] | – |
| Cc1cnc(CCN)n1C1CCC1 | inconclusive: 7.08 µM [inhibitor, partial curve] | – |
| O=C1Nc2ccccc2CC12CCCN(Cc1cccnc1)C2 (stereo not drawn) | – | inactive: 4.92% [at 149 µM] |
| CC(C)NC(=O)NC[C@H]1C[C@@H]2CCN1C[C@@H]2c1cc(C2CCCCC2)nn1C | – | inactive: 12% [at 86.2 µM] |

| SMILES | Potency | activity change, negative = inhibition |
| --- | --- | --- |
| COc1ncccc1-c1cnc2[nH]cc(CC(=O)N3CCN(C)CC3)c2c1 | active: 35.5 µM | – |
| O=[S+]1([O-])NC2(CCN(Cc3ccccn3)C2)COc2ccncc21 (stereo not drawn) | – | inactive: 20.6% [at 115 µM] |
| Cc1cc(C)cc(-n2c(=O)[nH]c3ccccc3c2=O)c1 | inconclusive: 39.8 µM [inhibitor, single point] | – |
| O=C(O)CSCC(=O)N1C[C@@H]2C[C@H](C1)c1ccc(-c3cccc(C(F)(F)F)c3)c(=O)n1C2 | active: 31.6 µM | – |
| CCC(CC)C(=O)NC[C@H]1C[C@@H]2CCN1C[C@@H]2c1cc(-c2ccco2)nc(C)n1 | inconclusive: 39.8 µM [inhibitor, single point] | – |
| COc1cc2c(cc1OCc1ccccc1)NC(=O)C21CCN(c2ncccn2)CC1 | inconclusive: 28.2 µM [inhibitor, single point] | – |
| CCOC(=O)c1c(C)n(Cc2ccccc2)c2ccc(O)cc12 | inconclusive: 12.6 µM [inhibitor, partial curve, poor fit] | – |
| Cc1nc(-c2ccco2)cc([C@H]2CN3CC[C@H]2C[C@@H]3CNC(=O)C2CC2)n1 | active: 35.5 µM | – |
| CC(Nc1ccc([N+](=O)[O-])c2cnccc12)c1ccc(F)cc1 (stereo not drawn) | inconclusive: 8.91 µM [inhibitor, full curve, poor fit] | – |
| O=C(Cc1ccc([N+](=O)[O-])cc1)N1CCN(Cc2ccc3c(c2)OCO3)CC1 | inconclusive: 39.8 µM [inhibitor, single point] | – |
| CCCS(=O)(=O)Nc1ccc(=O)n2c1[C@@H]1C[C@@H](CN(S(=O)(=O)c3ccc(OC)cc3)C1)C2 | active: 22.4 µM | – |
| N#CC(C#N)=NNc1ccc(-n2ccc(C(F)(F)F)n2)cc1 | inconclusive: 20 µM [inhibitor, partial curve, poor fit] | – |
| CSc1ccc(C2SCC(=O)Nc3n[nH]c(C)c32)cc1 (stereo not drawn) | – | inactive: 18.3% |
| O=C1NC(=O)N(Cc2ccco2)C(=O)/C1=C\c1ccc(-c2ccc(F)cc2)o1 | inconclusive: 5.01 µM [inhibitor, full curve, poor fit] | – |
| Cn1nc(C(=O)N[C@@H]2COCC[C@@H]2OCc2cscn2)c2ccccc21 | inconclusive: 31.6 µM [inhibitor, partial curve, poor fit] | – |
| CCOC(=O)C1=C(N)OC(C)=C(C(=O)OCc2ccccc2)C12C(=O)Nc1ccc(Br)cc12 (stereo not drawn) | – | inactive: 15.3% |
| O=C1N(c2ccccn2)C[C@H]2CN(Cc3ccccc3)CCN12 | inconclusive: 39.8 µM [inhibitor, single point] | – |
| C#CCOc1cccc(C2SCC(=O)Nc3c2c(C)nn3-c2ncnc3nc[nH]c23)c1 (stereo not drawn) | – | inactive: 9.22% |
| Cc1noc(C)c1S(=O)(=O)N1[C@H]2CC[C@@H]1c1cnc(-c3ccccc3)nc1C2 | – | inactive: 5.2% |
| Cc1cnc(C2CC2)n1C1CCCNC1 (stereo not drawn) | inconclusive: 31.6 µM [inhibitor, partial curve] | – |
| CCC(CC)NC1CC1 | – | inactive: -3.36% |
| CC(=O)Nc1ccc(-c2ccc(=O)n3c2[C@@H]2C[C@@H](CN(C(=O)c4cccs4)C2)C3)cc1 | inconclusive: 28.2 µM [inhibitor, partial curve] | – |
